Experimental data as given in the supplement of paper PMC12632987.
In all, about 4,500 sequences were measured (“median log2 fold change of GCK-ALFA target abundance (FLAG IP / Myc IP barcode read proportion)”: median about 0.078, lowest 2% from about -0.6 on). Some of the results follow.

B1: GBRAP_128_3242 (protein)
chain: SQEELLEEAKKLIEEIVKADVETAKKLTEKLIELLKKLNDEAREEVAEYLEKELEKLSAEKLEAVADTLRENRPKLDPYTAALVAGVEIDALELALEKEE
B2: GBRAP_52_5936 (protein)
chain: MEERLERDLDEAIALVKAGDLEGARALMREIARTYSEEEIEAFIERLAARAREAAPEDIPAVLTLAEIAAEVLEEEGWDEVLADDLLARVSAAAYENLQK
B3: GBRAP_43_5753 (protein)
chain: MKELIEGTIDFATLAAESPEISEEQKLKIIKDTMEIVADEKIDLTEELLEMVKAAAKSLSKENLEELLKHAKELAEKYPELKEMFEKAAEILEKAIKALE
B4: GBRAP_137_3659 (protein)
chain: AKVKVEVRIEGDFAEVVIKAEDKETAEKAADIAIDVARETGVAAAVSVDLEEKEVYIDLIGDRAQLRAFIDALAARLAKEYDVDLTVEEDGETREETLKK
B5: GBRAP_35_5544 (protein)
chain: MEEEETVEMLLNTMEDIVLALPDVSPEEQLILTKHLIKLAKLAIEEKPKNKELLKRGIEALKEAIKIVKESDLPEEEKEKLLKELEEAKEKFEKLLKKVE
B6: GBRAP_11_2777 (protein)
chain: KKEKLEEAARLAEELAETIERLLEEGTDDEELRERAERLLEELTELVKEHLDEASKKLAEIAREEWEEAKKDPENRVEHLKRMLAAVRTLLGDILLDLEE
B7: GBRAP_84_7010 (protein)
chain: EKLEKFKEKVREIFENSSPESRIKVLTYILLNFNGKVATAAVEIALEIDPEVAYEALSLAYEQTSDDENEITEEEVLELLKKEGEELAKLFKEAVKLAKA
B8: GBRAP_186_5375 (protein)
chain: EEELEEILDEIIDELEAEGYRVIVVETIRKLTEEEKKAIEREVEAVGALAKETGKKYALVIPFIGSKEEVEEAKKFVEELNKKAEAESGLKVRLAGAVSP
B9: GBRAP_160_4067 (protein)
chain: SEEIEELKKEIEEIFEEAIEEMKGEDHENRVTIARVMKGEIVMLLHERPEVSDEAIEEADKIGDELVETIENNPDLTDEEIEELIEKAKEKIKEVLDKKS
B10: GBRAP_125_3129 (protein)
chain: SKEEDLENLALFLKALGLSEDDIEEAVKEAEKHGFKGTVYAIALALDWEELAELVEKLTEEEVKEILKRVAEELKKNPNLTPEEVKELFLKLAKEVLEKR
B11: GBRAP_35_5507 (protein)
chain: SADDTAAEMLVATIEDLVKAVPDIDVETATTIANQLIDSAEELAEELKDNPEALERLRDAVEALRDAIAKNYGDSPLAKETLARLDALIEKLDKRLEEAK
B12: GBRAP_95_7028 (protein)
chain: NDDVLALASHAEVTLTALELGDRELAARSAREAVEELKKVTPEEIAEALTDEEKLALLRVATEVLSPEEAQEVLDKLLAASTDPETRARLRAIWEEAAAR
B13: GBRAP_14_3789 (protein)
chain: MEEKLKLVEEAREEIKEDARRLAPEKAEEIEKAIDEIFEKLKKKIKETGDAIKAVEEAREELLAKLAEILADEPALTRAALLAFADNELLLLEEELEELE
B14: GBRAP_137_3643 (protein)
chain: PKVTITVKTEGDLVTITVTFDDPEKAEEVAELITDIAVENGALAISVEIDEDGTLTAEIDVPKEKADALLKALVDALTKEFKATVTIKDENTGETTTVKA
B15: GBRAP_11_2904 (protein)
chain: KKEKLEKLAELLKKAVALLKELLAKGTDDEKLHAEALKVAEEALKLAKEVLDESDVELAEEAVELLKQAKADPANAAQYVQQALAIFSVLEGQVLLKIEE
B16: GBRAP_128_3161 (protein)
chain: AVEEAKKKTKELMEKIKNSSLEEVEKLAKELVEMMKTASDEEVEAMAEVILEELPKLSAEKLEILADVLEEKMPELSPFGQNQAADVLVEALNEAEELEE
B17: GBRAP_14_3850 (protein)
chain: VEALVKAVEETAEETKEMAAEVLPEHAEEVNKKIEELAKKIIERIKKEKLNKDEVAELMDEFAEEVAKFIREKGFANETEIAAIRAEIINEAALELEEVE
B18: GBRAP_160_4078 (protein)
chain: SEETEKLEKEIREIGEEAVEWMKEEDYENRVAIARVMAGDILMLVDEYPKMSDEQEEEVDEILDETVAAIEANPDISDEELAALVEETAEKVIEIVKEAA
B19: GBRAP_150_3931 (protein)
chain: SLEELEILTDTALDLVDVIEELGLPAAENALKVAEAAEEEAKEIDEELAKLAKEAAEKLKELVKLMKEGGKEEELKKLIEEARKKIKEAEKRVEKLKKES
B20: GBRAP_128_3258 (protein)
chain: ANPAVVARAEAFVAALKSSDPAERRAIARDFAAWLASVSDEEAAQAVAVVEARLHELTAEQLEILADELRAALPQLSPEKARLAAGLEVDALNEAEEKEE
B21: GBRAP_160_4853 (protein)
chain: SAKLEKALKIVEENEKFALDAIDEAPQSQRGAIATAIAGTTILELEEEGLLSEEMEEKLAEVRDKLEAELKANADADAAVHKELVKKAFEEMKKIIKEMM
B22: GBRAP_128_3326 (protein)
chain: MDEERLEEAEELIEAIVEADVETAKELTRELLKLMETLSPEERERVVELAEERLEELDAEKLEAIADTIEEEMPNLDPETALYANEIRVEALNLAEEKEE
B23: GBRAP_83_6937 (protein)
chain: KEKITVVANDDNIEKSFEIAEDLHKEEGYEVDIDVIITKESIEKLLKEVEKLFKKGVNADLHISLLGVTEEEAEELKKKLEEMAKKYGVNANITVEAIEL
B24: GBRAP_128_3364 (protein)
chain: VNEEILKKVEELVEAIINSSVEEAKELAKEIVELMLKASKEEQEAMAEIIKKKLPELSAEKLEVLADVIREMLPKADPYTKEILSDIEVEALNEAEEKEE
B25: GBRAP_160_4810 (protein)
chain: KEKAEKLMEEARKDLLETAEASADLPIEDRARLLEAEGYTSILDFEEELNISDETEEELDEVVDDLVARLLANPDLSREEVLALVEEAVERMKEIVEKEV
B26: GBRAP_53_6424 (protein)
chain: AAAAIAALRAQARELADQATKADAATQAALTAQINALLAQLKAAGAPDAEIAALAAEIAKRLKAAGAADSALVALAQGMAALGLDDATAAVAEEAVEELE
B27: GBRAP_166_4908 (protein)
chain: SNEERIKKLKEEAEKVIEELKEADEEEALELIIEFGELLRELKELGASEEEILELVRKLLKAVKEKGFSVAVAAGIVANEAEFDEEEIDKLDAIAKEVAA
B28: GBRAP_128_3539 (protein)
chain: SLEEVRARARAVMERIKASDVETARAIMKEFLAELKGLSLEEVEAAIDVLEELLPELTAEKLEAIADAMDEMRPELSPEKQNLVADLQVAALNEAEEKEE
B29: GBRAP_184_5212 (protein)
chain: EVVHRSVEAETAEEAIKKSEEVVAEAKAEGKKLVLHVFAKNMSLEEIEKVMEYLSKLKKEGLIEDAVLHVEDDKSEEEIDKLIELADKYGIRLVIALPDE

Each binder was assayed against GABARAP, O95166 (assay: median log2 fold change of GCK-ALFA target abundance (FLAG IP / Myc IP barcode read proportion) (log2 ratio); each designed protein is fused to an ALFA-tag nanobody in HEK293 cells to bring the named protein to FLAG-tagged glucokinase (GCK); Myc marks an untargeted standard; higher = target protein stabilised (more abundant)). Settings: target protein: 3xFLAG-MCP-GCK-ALFA reporter; HEK293 landing pad (RPLP).
How it was run: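 HEK293 landing-pad cells received a recombined binder library fused to the ALFA nanobody and were induced with 2 μg mL^−1 doxycycline, then transfected with a plasmid encoding a FLAG-tagged target and a Myc-tagged standard. Lysates were collected after 48 h for anti-FLAG and anti-Myc immunoprecipitation, and the circular RNA barcodes were reverse transcribed, amplified and sequenced. Target abundance for each binder is the median log2 ratio of FLAG to Myc barcode read proportions. Barcodes had to reach a proportion of at least 10^−7 in both replicates, each binder needed at least 3 barcodes per replicate, a pseudocount of 10^−6 was applied, and the two replicates were pooled.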

Chain of GABARAP, O95166 (O95166 whole entry, the tested form may be a part): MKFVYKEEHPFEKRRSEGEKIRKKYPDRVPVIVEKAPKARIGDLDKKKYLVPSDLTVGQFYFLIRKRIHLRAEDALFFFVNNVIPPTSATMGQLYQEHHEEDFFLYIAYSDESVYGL

Binder | median log2 fold change
B1 | -0.0414
B2 | -0.254
B3 | -0.0458
B4 | 0.0598
B5 | -0.612
B6 | 0.0948
B7 | -0.251
B8 | 0.0698
B9 | 0.0344
B10 | 0.31
B11 | 0.202
B12 | 0.199
B13 | -0.144
B14 | 0.061
B15 | 0.354
B16 | 0.0696
B17 | 0.129
B18 | -0.282
B19 | 0.239
B20 | 0.21
B21 | 0.207
B22 | -0.0419
B23 | 0.224
B24 | 0.314
B25 | -0.669
B26 | 0.367
B27 | -0.0494
B28 | 0.0799
B29 | 0.134
